In paper PMC6919601, “Identification of Plasmodium dipeptidyl aminopeptidase allosteric inhibitors by high throughput screening” (PLoS ONE, 2019):
Screen size: about 110,000 compounds; about 230 (0.21%) showed an effect of 50% or more. The list shows a part of the results.

molecular target: DPAP1 (Plasmodium falciparum, UniProt Q8IIJ9); assay: primary screen, percent inhibition; read by cleavage of a fluorogenic dipeptide substrate; higher = more effect of the substance; parameters: species or system P. falciparum D10 trophozoite lysates; single well
Sequence (Q8IIJ9 whole entry, looked up): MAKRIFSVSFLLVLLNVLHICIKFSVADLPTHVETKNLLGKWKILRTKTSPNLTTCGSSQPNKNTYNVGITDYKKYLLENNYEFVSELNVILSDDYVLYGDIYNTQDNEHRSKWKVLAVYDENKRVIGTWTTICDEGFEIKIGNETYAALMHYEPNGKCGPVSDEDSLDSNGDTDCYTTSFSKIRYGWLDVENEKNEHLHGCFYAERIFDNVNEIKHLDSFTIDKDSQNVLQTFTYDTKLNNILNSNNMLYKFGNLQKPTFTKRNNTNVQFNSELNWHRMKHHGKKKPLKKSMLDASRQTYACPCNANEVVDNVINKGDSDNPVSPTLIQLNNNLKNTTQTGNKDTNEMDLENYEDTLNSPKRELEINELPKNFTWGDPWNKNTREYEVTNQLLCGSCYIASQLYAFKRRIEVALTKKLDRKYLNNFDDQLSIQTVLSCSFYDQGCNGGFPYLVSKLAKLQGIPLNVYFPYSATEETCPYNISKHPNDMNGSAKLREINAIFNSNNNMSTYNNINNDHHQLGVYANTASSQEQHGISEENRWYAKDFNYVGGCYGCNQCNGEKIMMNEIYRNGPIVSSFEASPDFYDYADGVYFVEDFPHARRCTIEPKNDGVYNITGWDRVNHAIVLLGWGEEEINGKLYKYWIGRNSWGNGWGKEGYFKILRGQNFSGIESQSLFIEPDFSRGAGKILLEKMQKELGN
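Note: 30 min substrate incubation versus DMSO and 10 µM JCP410 controls.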

| Compound | % Inhibition @ 10 uM [%] |
| --- | --- |
| CCNC(=S)Nc1ccccc1Cl | 3.03 |
| CCOc1ccccc1NC(=O)COc1ccccc1OC | -6.66 |
| Cc1ccccc1C(=O)N1CCN(C2=NS(=O)(=O)c3ccccc32)CC1 | 2.13 |
| Cc1cc(C(F)(F)F)n2nc(C)cc2n1 | -3.96 |
| N#CC1=C(N)Oc2[nH]nc(-c3ccc(Br)cc3)c2C1C1CC=CCC1 (stereo not shown) | 3.05 |
| COCCCNC(=O)/C(C#N)=C/c1c(Oc2ccccc2Cl)nc2c(C)cccn2c1=O | 3.63 |
| COc1cc(-c2cc(N)n(S(=O)(=O)c3ccccc3)n2)cc(OC)c1OC | 2.74 |
| Cc1nc2ccccn2c1C(=O)Nc1cccc(Cl)c1 | 0.0792 |
| C=CCn1cnc2c(oc3ccccc32)c1=O | -1.19 |
| COc1cc2c(cc1OC)C(c1cccc(Cl)c1)NCC2 (stereo not shown) | -7.46 |
| COc1ccc(CN2CC=C(c3ccc(F)cc3)CC2)cc1 | 1.57 |
| Cn1c(=O)c2c(ncn2CC(=O)Nc2nnc(C3CCCCC3)s2)n(C)c1=O | 1.91 |
| Cn1c(S(=O)(=O)CC(N)=O)nc2ccccc21 | -4.42 |
| CCCn1c(=N)n(CC(O)COc2ccccc2)c2ccccc21 (stereo not shown) | 3.69 |
| O=C(Cn1c(=O)c2cccn2c2cccnc21)N1CCC2(CC1)OCCO2 | 1.26 |
| Cc1cc(NC(=O)CN2CCCCCC2)c2ccccc2n1 | -5.78 |
| COc1ccc(OCCNS(=O)(=O)c2ccc3nc(O)sc3c2)cc1 | 4.61 |
| COCCNC(=O)c1c(NC(=O)Cc2coc3ccc(C(C)C)cc23)sc2c1CCCC2 | -4.19 |
| CC(=O)c1cccc(NC(=O)c2sc(Cl)nc2-c2ccccc2)c1 | 1.83 |
| COc1ccc(CCNCc2cccc(C)c2)cc1OC | -1.24 |
| COc1cccc(NC(=O)C(N)=O)c1 | 6.52 |
| COCCNC(=O)C1CCN(c2nn3cc(-c4ccc(C)cc4)nc3s2)CC1 | 2.72 |
| Oc1c2c(nc3nncn13)CCN(Cc1ccccc1)C2 | -3.49 |
| O=C(Nc1ccccc1C(F)(F)F)c1ccc(F)cc1 | -6.08 |
| COc1ccc(S(=O)(=O)NC(C)c2ccc(-n3ccnc3)cc2)c2ccccc12 (stereo not shown) | 0.895 |

| Compound | % Inhibition @ 10 uM [%] |
| --- | --- |
| COc1ccc(C)cc1NC(=O)CSCC(=O)Nc1ccccc1 | -3.49 |
| Cc1ccc(-n2nc3c(c2NC(=O)CCC2CCCC2)CS(=O)(=O)C3)cc1 | -0.349 |
| Cc1cc(-c2ccccc2C(=O)NCc2ccccc2)on1 | -3.56 |
| C#CCOC(=O)c1ccccc1C(=O)O | 1.76 |
| COc1cccc(C(=O)N/C(=C\c2cccnc2)C(=O)N2CC3CC(C2)c2cccc(=O)n2C3)c1 (stereo not shown) | 1.76 |
| COC(=O)c1ccc(C(=O)N2CCC(c3nc(O)c4nnn(Cc5ccc(F)cc5)c4n3)CC2)cc1 | 1.85 |
| COc1ccc(C(CC(=O)Nc2ncccc2C)N2Cc3ccccc3C2=O)cc1 (stereo not shown) | -3.84 |
| CCCn1c2c(c(O)c(C(=O)Nc3nc4ccccc4s3)c1=O)CCCC2 | -0.458 |
| CCOC(=O)c1c(NC(=O)CCCOc2ccc(Cl)cc2Cl)sc(C)c1C | 4.34 |
| COc1ccc(-c2cc(-c3ccccc3)c3cc(Cl)ccc3n2)cc1 | 1.72 |
| O=C(c1ccc(C(=O)N2CCOCC2)s1)N1CCOCC1 | -3.95 |
| CC(NC(=O)Cc1ccccc1)c1cc2c(cc1Cl)OCCO2 (stereo not shown) | -1.04 |
| CCCN(CC1CC1)C1CCN(C)CC1 | -1.15 |
| Cc1ccc(-c2cc(C(F)F)n3ncc(C(=O)N4CCN(c5ncccn5)CC4)c3n2)cc1 | 4.08 |
| Cc1nnc(NC(=O)CSc2nc3c(c(=O)n2CCc2ccccc2)SCC3)s1 | -6.47 |
| COc1ccc(CC(=O)NCc2ccc(C)cc2)cc1 | -5.16 |
| C#CCOc1ccc(C=C2C(=O)OC(c3ccccc3)OC2=O)cc1 (stereo not shown) | 1.52 |
| O=c1cc2c3c(cc(O)cc3o1)OC2 | -1.46 |
| Cc1nc2ncnn2c(C)c1CCC(=O)NCc1ccco1 | -0.465 |
| O=C(c1ccccc1)c1ccc2c(c1)NC(c1ccco1)C1=C(O)CCCC1=N2 (stereo not shown) | -0.68 |
| CN(Cc1ccccc1)C(=O)c1cc(-c2ccc(F)cc2)on1 | -4.79 |
| COCCCN1C(=O)c2ccc3c(=O)n4c5ccc(Cl)cc5nc4c4ccc(c2c34)C1=O | 4.21 |
| O=C(CSc1nc2nccnc2c(=O)n1Cc1ccc(Cl)cc1)NCCc1ccccc1 | -5.99 |
| CN(CCc1ccccn1)Cc1c(Cl)cccc1Cl | 0.472 |
| CC(C)n1c(S)nc2c1c(=O)n(C)c(=O)n2C | 1.37 |

| Compound | % Inhibition @ 10 uM [%] |
| --- | --- |
| COc1ccc(CCC(=O)Nc2ccc(C(C)=O)cc2)cc1 | 3.49 |
| CCc1ccc(C2=NN(CCC(=O)NCc3ccc4c(c3)OCO4)C(=O)CC2)cc1 | -0.971 |
| CCOC(=O)c1c(-c2ccccc2)nnn1-c1nc(OCC)nc(N2CCCCC2)n1 | 1.03 |
| CCOc1ccc(NC(=O)Nc2ccccc2)cc1 | 1.48 |
| CC1CCN(C(=O)c2cccc(S(=O)(=O)N3CCCCC3)c2)CC1 | -1.65 |
| CCOc1ccc(-c2cc(C(=O)N3CCOCC3)c3ccccc3n2)cc1 | -2.26 |
| CCC1CCCCN1CCCNC(=O)C1CCCN(S(=O)(=O)N2CC(C)CC(C)C2)C1 (stereo not shown) | -6.75 |
| COc1ccc(OCC(O)Cn2c(N3CCCCCC3)nc3c2c(=O)[nH]c(=O)n3C)cc1 (stereo not shown) | -1.96 |
| O=C(CCCN1C(=O)CSc2ncccc21)N1CCN(Cc2ccccc2)CC1 | -2.37 |
| Cn1c(=O)c2c(nc(Oc3ccc(-n4cnnn4)cc3)n2C)n(C)c1=O | 9.19 |
| CC1CCCCN1S(=O)(=O)c1ccc(C(=O)Nc2ccc(Cl)c(Cl)c2)cc1 (stereo not shown) | 2.65 |
| Cc1ccc(/C=c2\sc3nc(=O)c(Cc4ccccc4)nn3c2=O)o1 | 0.0069 |
| Cc1ccc(S(=O)(=O)N2CCCCCC2)cc1C(=O)Nc1ccc(Br)cc1 | -8.18 |
| COc1cccc(CNS(=O)(=O)c2ccc(CN3C(=O)c4cccnc4C3=O)cc2)c1 | 5.25 |
| Cc1cccc(C2C(C#N)=C(N)Oc3c2c(=O)oc2ccccc32)c1 (stereo not shown) | 3.1 |
| CCN1CCC(NC23CC4CC(CC(C4)C2)C3)CC1 | 4.74 |
| O=C(Cc1ccccc1)N1CCN(c2ccc([N+](=O)[O-])cc2)CC1 | 2.33 |
| Cc1ccc(Cn2c(=O)c3ccccc3n3c(-c4ccccc4O)nnc23)cc1 | -1.72 |
| CC(C)N(Cc1ccccc1)C(=O)c1ccc([N+](=O)[O-])cc1 | 1.54 |
| CC(CCCC(C)(C)O)NC(C)CCc1ccccc1 (stereo not shown) | -1.82 |
| CCOc1cc(C2c3c(oc4ccccc4c3=O)C(=O)N2c2nnc(C(C)C)s2)ccc1O (stereo not shown) | -2.92 |
| COC(=O)C1=C(C)N(C)C(=O)/C1=C\c1ccc(Cl)cc1Cl | -1.6 |
| Cn1c(-c2cc3ccc(O)cc3oc2=O)nc2ccccc21 | -4.75 |
| O=c1/c(=C/C=C/c2ccccc2)sc2nc(-c3cccc(Cl)c3)nn12 | -2.98 |
| CN1C(=O)c2ccccc2C(C(=O)Nc2cccnc2)C1c1cccs1 (stereo not shown) | 1.64 |

| Compound | % Inhibition @ 10 uM [%] |
| --- | --- |
| CCc1cc(=O)oc2c(C)c3c(cc12)CN(Cc1ccccc1OC)CO3 | -8.25 |
| COc1cc2c(cc1OC)C(COc1ccc(F)cc1)N(C(=O)C1CC1)CC2 (stereo not shown) | 2.88 |
| CCOc1ccc(C(=O)CCNC(CC(=O)O)C(=O)O)cc1 (stereo not shown) | 42.3 |
| CCCCCC(=O)NC(C)C(=O)O (stereo not shown) | -5.9 |
| COCCCNc1ncnc2onc(-c3ccc(Cl)cc3)c12 | 1.15 |
| CC1(C)CC2=Nc3ccccc3NC(c3c(Cl)cccc3Cl)C2=C(O)C1 (stereo not shown) | -2.51 |
| CCCOc1cccc(NC(=O)c2cc(CC(C)C)oc2C)c1 | -1.95 |
| CC1=CC2=NC(=O)/C(=C\c3ccc(OCCCOc4ccccc4)c(Cl)c3)C(=N)N2O1 | 0.317 |
| CC(=O)c1cccc(NC(=O)c2cnn3c(C(F)(F)F)cc(-c4ccccc4)nc23)c1 | 3.56 |
| Cc1cccc(C2N(c3ccccn3)C(=O)C3CCCN32)c1 (stereo not shown) | -0.499 |
| CN(c1ccc(C(=O)NCCSCc2ccco2)cc1)S(C)(=O)=O | -2.76 |
| CCN(CC)C1CC(=O)N(c2ccc(N3C(=O)CC(N(CC)CC)C3=O)cc2)C1=O (stereo not shown) | -7.14 |
| CCCCCc1ccc(S(N)(=O)=O)cc1 | 1.17 |
| CC(C)COc1ccc(C2(CNC(=O)C(c3ccccc3)c3ccccc3)CCCC2)cc1 | 1.88 |
| COc1ccc(C(=O)N2CCCCC2)cc1S(=O)(=O)NC1CCCC1 | -3.34 |
| Cc1ccc(OCC(=O)Nc2ccc(C)c(F)c2)cc1 | 0.727 |
| O=C(c1ccco1)N1CCN(C(=O)c2cccc3c2C(=O)N(C2CCCCC2)C3)CC1 | -4.14 |
| COc1ccc(-c2csc(-c3cccnc3)n2)cc1 | -7.28 |
| N#CC1=C(N)C(C#N)(C#N)[C@@H](c2ccc([N+](=O)[O-])cc2)[C@@H]2CCCC=C12 | 17 |
| O=C(O)c1nc(N2CCOCC2)nc(N2CCOCC2)n1 | -2.75 |
| CN1C(=O)/C(=C\c2c[nH]c3ccccc23)S/C1=N\c1ccccc1 | -1.84 |
| CN1C(=O)C(=Cc2cn(CC(=O)NCc3ccco3)c3ccccc23)C(=O)N(C)C1=O | -4.93 |
| Cc1nn2c(=O)/c(=C/c3ccccc3Cl)sc2nc1=O | -1.75 |
| COc1ccc(C2C3=C(O)CCCC3=Nc3nc(C(F)(F)F)nn32)c(OC)c1OC (stereo not shown) | 1.73 |
| N#CCNC(=O)C1(NC(=O)c2ccc(-c3csc(CN4CCOCC4)n3)cc2)CCCCC1 | 0.173 |
